# Assay results as given in PubChem BioAssay AID761 (NMMLSC, 2007).
# Hit rate of the full screen: of about 190,000 compounds, about 400 (0.21%) were called active. Inconclusive results, whose numbers are uncertain, are shown with a selection of clear calls.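 How the source made its calls: active means percent activity GTP binding at least 20 points away from the 100% baseline, either down as inhibitor or up as activator; inconclusive means compound flagged as likely green fluorescent from well-wide comparison; inactive means the rest.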
# Target: Cell division control protein 42 homolog (Homo sapiens) (UniProt P60953)
# Chain of UniProt P60953 (P60953 whole entry, looked up): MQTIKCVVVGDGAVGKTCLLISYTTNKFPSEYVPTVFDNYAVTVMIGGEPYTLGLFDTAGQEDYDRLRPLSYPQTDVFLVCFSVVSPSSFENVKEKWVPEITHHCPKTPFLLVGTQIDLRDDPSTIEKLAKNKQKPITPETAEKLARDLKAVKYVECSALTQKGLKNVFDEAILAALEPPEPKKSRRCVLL
# Assay: wildtype Cdc42 fluorescent GTP binding changes, either direction – biochemical, multiplex bead flow cytometry, Bodipy-GTP, primary screen (AID 761);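 further: median bead fluorescence of bound Bodipy-FL-GTP at 100 nM; 0% = excess unlabeled GTP control and 100% = no compound control; below 100% means less GTP binding so inhibitor and above means activator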
# Details: GST-Cdc42 beads, at 10 µM, actives lie on both sides
row,Compound,percent activity (GTP binding)
1,COc1ccc(-c2nsc(SCC(=O)NCC3CCCO3)n2)cc1 (configuration not stated),inactive: 92%
2,Cc1nn(C)c(Sc2ccccc2N)c1[N+](=O)[O-],inactive: 100%
3,CC(C)CCN(C(=S)NC(=O)C1CCCCC1)c1c(N)n(Cc2ccccc2)c(=O)[nH]c1=O,inactive: 96%
4,COc1cc2c(cc1OC)-c1cc(NC3CCCCCCC3)nc(=O)n1CC2,active: 77%
5,O=S(=O)(c1ccc(F)cc1)n1ccc(-c2cccc(OCc3ccc(Cl)cc3Cl)c2)n1,inconclusive: 108%
6,COCCNC(=O)CN(c1ccc(OC)c(OC)c1)S(=O)(=O)c1ccc(C)cc1,inconclusive: 104%
7,Cc1nnc(SCC(=O)NCc2ccco2)n1-c1ccccc1,inconclusive: 105%
8,COc1ccc(/C=C/C(=O)Nc2ccc3nc4n(c(=O)c3c2)CCCC4)cc1OC,inconclusive: 86%
9,CCS(=O)(=O)N1CCC(NC(=O)c2cc(OC)cc(OC)c2)CC1,inactive: 98%
10,CC(=O)N[C@@H](Cc1c[nH]c2ccccc12)C(=O)OCC(=O)Nc1ccc(Cl)c(S(=O)(=O)N(C)C)c1,inconclusive: 96%
11,COc1cccc(CNC(=O)C2CCN(S(=O)(=O)c3cccs3)CC2)c1,inconclusive: 96%
12,O=C1c2cccc3cccc(c23)C(=O)N1CCN1CCN(C(=S)Nc2ccccc2)CC1,inconclusive: 101%
13,CCC(/C=C1\Sc2ccc(OC)cc2N1CC)=C\c1sc2ccc(OC)cc2[n+]1CCCS(=O)(=O)[O-],inactive: 94%
14,COC(=O)CC1C(=O)NCCN1C(=O)CSc1nnnn1-c1ccc(Cl)cc1 (configuration not stated),inactive: 98%
15,CCn1ccnc1CN(C)Cc1cn[nH]c1-c1ccc(OC)c(F)c1,inactive: 99%
16,O=C(CSc1nnc(-c2ccc(F)cc2)o1)NC1CCCCC1,inconclusive: 111%
17,Cc1ccccc1Sc1c(C#N)c(-c2ccccc2)nn1C,inactive: 99%
18,CC(=O)N1CCN(CC(=O)Nc2sccc2C#N)CC1,inconclusive: 94%
19,Cc1ccc(SCc2ccc(C(=O)Nc3ccccc3Br)cc2)cc1,inconclusive: 99%
20,Cc1c(NC(=O)/C(C#N)=C/c2ccc(-c3cccc(Cl)c3)o2)c(=O)n(-c2ccccc2)n1C,inconclusive: 92%
21,COc1cccc(CN2CCN(Cc3cc(OC)c(OC)cc3[N+](=O)[O-])CC2)c1,inconclusive: 95%
22,O=C(NCCO)c1ccc2nc(-c3ccco3)c(-c3ccco3)nc2c1,inconclusive: 91%
23,Nc1ccc(C(=O)N/N=C\c2cc(N=Nc3cccc4ccccc34)ccc2O)cc1,inconclusive: 86%

row,Compound,percent activity (GTP binding)
1,Cc1cccc(NC(=O)CN(C)S(=O)(=O)c2ccccc2)n1,inconclusive: 107%
2,C/C(=N\NC(=O)c1cccnc1)c1cc2ccccc2o1,inconclusive: 92%
3,CCOc1ccccc1NC(=O)CSc1ccc2nnc(-c3cccnc3)n2n1,active: 65%
4,Cc1noc(/C=C/c2ccc(-c3ccccc3Cl)o2)c1[N+](=O)[O-],inconclusive: 126%
5,CC(=O)c1cc(C#N)c(N2CC(C)OC(C)C2)nc1C (configuration not stated),inactive: 98%
6,CC(=O)Nc1ccc(NC(=O)CSc2nnc(COc3ccccc3C)n2CC2CCCO2)cc1 (configuration not stated),inactive: 99%
7,CCSc1nc2ccc(C)cc2cc1C#N,inconclusive: 93%
8,CN(CC1COc2ccccc2O1)C(=O)c1ccc(N(C)C)cc1 (configuration not stated),inconclusive: 90%
9,O=C(COC(=O)c1ccccc1NC(=O)c1ccco1)NC1CCS(=O)(=O)C1 (configuration not stated),inconclusive: 90%
10,Cc1ccc(NC(=O)CSCc2n[nH]c(=O)[nH]2)c(Br)c1,inactive: 98%
11,C=CCc1c(NCCO)nc(C)[nH]c1=O,inactive: 94%
12,COc1ccc(OC)c(C(=O)CN2C(=O)NC(C)(c3ccccc3)C2=O)c1 (configuration not stated),inconclusive: 107%
13,COc1ccc2c(Cl)c(-c3nnco3)sc2c1,inconclusive: 95%
14,Cc1ccc(Nc2c(F)c(F)c(F)c(F)c2C(=O)O)c(C)c1,active: 134% [activator]
15,O=S(=O)(c1ccc2ncn(O)c2c1)N1CCOCC1,inactive: 94%
16,CCOc1ccc(S(=O)(=O)NC2CC2)cc1C(N)=O,inactive: 99%
17,Cc1nn(C)c(C(=O)Nc2ccc(S(=O)(=O)NC34CC5CC(CC(C5)C3)C4)cc2)c1Br,inactive: 91%
18,COc1ccc2cc(C#N)c(SCC(=O)N3CCCC3)nc2c1,inconclusive: 98%
19,COc1ccc(-c2nn3c(-c4ccco4)nnc3s2)cc1OC,active: 68%
20,CCOc1cc(OCC)cc(C(=O)NCCCN2CCOCC2)c1,inactive: 101%
21,Cn1c(SCc2ccccc2)nnc1-c1ccc2c(c1)OCO2,inconclusive: 99%
22,COc1cc(-c2csc(CCn3nc(C)cc3C)n2)cc(OC)c1OC,inconclusive: 106%
23,O=C(NCC1CCCO1)c1onc(CSc2ccccc2)c1C(=O)O (configuration not stated),inconclusive: 95%

row,Compound,percent activity (GTP binding)
1,Cc1ccc(COC(=O)c2nn(C)c(=O)c3ccccc23)cc1,inactive: 96%
2,COc1ccc(N(CC(=O)NN=C2CCCC2)S(=O)(=O)c2ccccc2)cc1,inconclusive: 108%
3,NC(=O)COC(=O)c1cccc2c1-c1ccccc1C2=O,active: 78%
4,N#Cc1c2nc3ccccc3nc2n2cc(NC(=O)c3ccc(F)cc3)ccc12,inactive: 91%
5,CCOC(=O)c1c(NC(=O)c2cccs2)sc(C(=O)N(C)C)c1C,inconclusive: 107%
6,Cc1cc(C(=O)N/N=C/c2cc(Br)ccc2OC(=O)c2ccc(Br)cc2)n[nH]1,inconclusive: 102%
7,Nc1nc2nc(-c3cccs3)cc(C(F)(F)F)n2n1,inactive: 96%
8,COc1cccc(CN2CCC(C(=O)N3CCN(c4ccccc4F)CC3)CC2)c1OC,inconclusive: 104%
9,COC(=O)c1cn(NC(=O)Cn2nc([N+](=O)[O-])c(Br)c2C)c(=O)c2ccccc12,inactive: 87%
10,Cc1ccc(C)c(N2CCN(C(=O)c3ccc(CS(=O)(=O)c4ccccc4C)o3)CC2)c1,inactive: 89%
11,Cc1noc(NS(=O)(=O)c2ccc(NC(=O)CCN3C(=O)c4ccccc4C3=O)cc2)c1C,inconclusive: 92%
12,OCC1(Cc2ccccc2)CCCN(Cc2ccn[nH]2)C1 (configuration not stated),inactive: 97%
13,Cc1ccc(N=Nc2c(N)nn3c(N)c(C#N)c(C)nc23)cc1,inconclusive: 88%
14,COC(=O)[C@H]1C2CCC(C(=O)OC)(CC2)[C@H]1C(=O)OC,inconclusive: 103%
15,O=C(N/N=C/c1ccc(COc2ccc(Br)cc2)o1)c1ccco1,inconclusive: 87%
16,CCOC(=O)c1sc2nc(-c3cccnc3)ccc2c1N,inconclusive: 92%
17,Cc1cccc(C(=O)Nc2ccc(CC(=O)O)cc2)c1,inconclusive: 92%
18,COCCn1cc(C(=O)NCCCN2CCC(C)CC2)c2c3ccccc3n(C)c2c1=O,inconclusive: 111%
19,COc1ccccc1N1CCN(c2ccc(Cl)nn2)CC1,inconclusive: 92%
20,CC(C)C(=O)n1nc(-c2cccnc2)nc1NCc1ccc(F)cc1,inconclusive: 95%
21,Cc1c(C)n(CC(O)CN2CCOCC2)c2ccccc12 (configuration not stated),inconclusive: 102%
22,Cc1ccc(-n2[nH]c(C)c(C=Nc3ccc(Br)cn3)c2=O)cc1,inactive: 100%
23,CCOC(=O)c1cccc(NC(=S)NCc2ccc(C)cc2)c1,inactive: 97%

row,Compound,percent activity (GTP binding)
1,Cc1cc([N+](=O)[O-])ccc1N=Nc1c(N)[nH]n(-c2ccccc2)c1=O,inactive: 88%
2,Cc1cc(C(=O)Cn2nc(C(=O)O)c3ccccc3c2=O)c(C)n1-c1ccc(OC(F)F)cc1,active: 79%
3,CCOC(=O)N1CCC(N2Cc3cccc(C(=O)Nc4ccc(OC)c(OC)c4)c3C2=O)CC1,inconclusive: 90%
4,CSc1nc2nccc(-c3ccc(-c4ccccc4)cc3)n2n1,inconclusive: 69%
5,COc1ccc(CCNC(=O)CSc2nc(-c3ccc(OC)c(OC)c3)ccc2C#N)cc1,inconclusive: 99%
6,CCCNc1c(F)c(F)c2c(C)c3ccccc3nc2c1F,inconclusive: 102%
7,CCn1ncc(N(C)N)c(Cl)c1=O,inactive: 95%
8,COc1cc(OC)cc(C(=O)NNC(=S)Nc2ccc(S(N)(=O)=O)cc2)c1,inconclusive: 91%
9,O=C(c1ccco1)N1CCCN(Cc2nc(-c3cccs3)no2)CC1,inconclusive: 95%
10,CCc1ccc(C2C(C#N)=C(N)N(N3CCOCC3)C3=C2C(=O)CC(C)(C)C3)s1 (configuration not stated),inconclusive: 94%
11,C=CCNc1cnn(CC(C)=O)c(=O)c1Br,inconclusive: 107%
12,CC(C)Cn1c(N)c(C(=O)COC(=O)c2ccc3c(c2)OCCO3)c(=O)n(C)c1=O,inconclusive: 93%
13,Cn1c(=O)oc2cc(S(=O)(=O)NCCC(=O)NCCc3ccccc3)ccc21,inconclusive: 107%
14,C=CCOC(=O)C1=C[C@H](C2CCCCC2)[C@@H](CCCO)[C@H](OCC)O1,inactive: 94%
15,Cc1cc(C)n(CCNc2nc3nonc3nc2N2CCCCC2)n1,inactive: 93%
16,CCn1c(SCC(=O)N/N=C/c2ccc(C)o2)nnc1-c1ccc(C(C)(C)C)cc1,inconclusive: 100%
17,O=C(Nc1ccc(N2CCCCC2)cc1)c1ccc2ccccc2n1,inactive: 95%
18,c1ccc(-n2c(SCC3CCCCO3)nnc2-c2cnccn2)cc1 (configuration not stated),inconclusive: 88%
19,CCOC(=O)c1sc(NC(=O)c2cc3ccccc3o2)nc1C,inconclusive: 96%
20,CCc1ccc(N(C)S(=O)(=O)c2ccc3[nH]cc(C(=O)NCCN4CCOCC4)c(=O)c3c2)cc1,inconclusive: 106%
21,COC(=O)c1oc2ccccc2c1NC(=O)c1ccccc1O,inconclusive: 92%
22,CCOC(=O)c1cnc2c(C#N)cnn2c1N,active: 77%
23,CC1=NNC(=O)C1C(c1ccccc1)C1C(=O)NN=C1C (configuration not stated),inactive: 96%
